# Test results: PMC5700166
# This is a selection; strong and weak results do not stand in their true shares. The list includes weakly bound sequences.
# What was measured:
# Test in all cases: protein-binding microarray (PBM)
# Details in all cases: PBM: ~300 nM protein, 6 mM HEPES pH 7.8, 80 mM KCl, 0.5 mM EDTA, 0.5 mM EGTA, 6% glycerol, 35 ng/ul poly-dIdC, 1% milk, 1 h, room temperature; Ap Aiptasia and Nv Nematostella (sea anemones) / Co Capsaspora / Aq Amphimedon (sponge) / Dm Drosophila / Hu human; RHD is the Rel homology domain; high values mean tight binding; most listed sequences are background and not binding sites; double strand, one strand shown
# GST-Ap-NF-kB RHD = target: T1, GST-Ap-NF-kB RHD (UniProt A0A913YAJ5)
# T1 sequence: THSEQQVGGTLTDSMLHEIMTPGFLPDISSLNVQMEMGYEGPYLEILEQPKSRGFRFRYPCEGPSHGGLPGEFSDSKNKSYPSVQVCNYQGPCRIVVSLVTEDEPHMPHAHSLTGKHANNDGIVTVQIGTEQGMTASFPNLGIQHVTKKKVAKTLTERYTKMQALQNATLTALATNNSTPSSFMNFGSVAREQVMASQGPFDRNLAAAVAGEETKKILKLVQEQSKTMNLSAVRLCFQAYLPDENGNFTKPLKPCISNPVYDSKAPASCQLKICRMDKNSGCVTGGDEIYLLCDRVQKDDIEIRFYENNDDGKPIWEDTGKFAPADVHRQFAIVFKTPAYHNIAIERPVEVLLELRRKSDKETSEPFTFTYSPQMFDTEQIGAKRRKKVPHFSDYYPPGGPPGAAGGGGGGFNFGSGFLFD
# [1] = target: T2, GST-Nv-NF-kB (Cys allele) (UniProt E5G601)
# T2 sequence: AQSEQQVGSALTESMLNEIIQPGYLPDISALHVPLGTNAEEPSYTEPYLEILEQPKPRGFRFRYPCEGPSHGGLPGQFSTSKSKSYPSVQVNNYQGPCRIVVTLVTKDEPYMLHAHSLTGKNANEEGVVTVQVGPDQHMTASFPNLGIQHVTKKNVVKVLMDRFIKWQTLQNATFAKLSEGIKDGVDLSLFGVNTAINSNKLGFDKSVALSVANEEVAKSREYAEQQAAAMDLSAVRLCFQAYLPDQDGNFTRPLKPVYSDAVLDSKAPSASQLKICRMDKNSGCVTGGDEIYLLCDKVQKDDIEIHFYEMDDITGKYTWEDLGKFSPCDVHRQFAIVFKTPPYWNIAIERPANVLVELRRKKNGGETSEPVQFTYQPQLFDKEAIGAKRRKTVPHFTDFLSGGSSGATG
# GST-Co-NF-kB = target: T3, GST-Co-NF-kB (UniProt F1ARL5)
# T3 sequence: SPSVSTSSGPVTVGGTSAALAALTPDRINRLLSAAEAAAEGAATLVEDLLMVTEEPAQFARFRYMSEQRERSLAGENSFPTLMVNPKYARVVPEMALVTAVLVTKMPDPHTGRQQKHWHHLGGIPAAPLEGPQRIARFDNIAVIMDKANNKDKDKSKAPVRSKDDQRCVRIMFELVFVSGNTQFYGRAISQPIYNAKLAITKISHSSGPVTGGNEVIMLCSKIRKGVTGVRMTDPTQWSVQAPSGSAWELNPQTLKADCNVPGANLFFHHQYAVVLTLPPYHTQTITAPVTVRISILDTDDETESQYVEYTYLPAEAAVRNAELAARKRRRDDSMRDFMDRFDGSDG
# GST-Dm-Relish = target: T4, GST-Dm-Relish (UniProt Q94527)
# T4 sequence: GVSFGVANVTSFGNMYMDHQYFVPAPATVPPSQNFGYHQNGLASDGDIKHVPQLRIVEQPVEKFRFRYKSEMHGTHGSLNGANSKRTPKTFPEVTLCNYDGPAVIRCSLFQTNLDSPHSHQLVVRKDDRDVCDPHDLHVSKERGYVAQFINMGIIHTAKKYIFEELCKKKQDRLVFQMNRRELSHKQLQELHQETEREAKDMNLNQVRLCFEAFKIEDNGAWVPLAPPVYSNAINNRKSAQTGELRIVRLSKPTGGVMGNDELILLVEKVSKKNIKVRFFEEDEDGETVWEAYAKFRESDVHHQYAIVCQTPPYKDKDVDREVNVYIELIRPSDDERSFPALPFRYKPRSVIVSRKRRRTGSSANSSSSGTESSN
# GST-Aq-NF-kB = target: T5, GST-Aq-NF-kB (UniProt A9Y5G7)
# T5 sequence: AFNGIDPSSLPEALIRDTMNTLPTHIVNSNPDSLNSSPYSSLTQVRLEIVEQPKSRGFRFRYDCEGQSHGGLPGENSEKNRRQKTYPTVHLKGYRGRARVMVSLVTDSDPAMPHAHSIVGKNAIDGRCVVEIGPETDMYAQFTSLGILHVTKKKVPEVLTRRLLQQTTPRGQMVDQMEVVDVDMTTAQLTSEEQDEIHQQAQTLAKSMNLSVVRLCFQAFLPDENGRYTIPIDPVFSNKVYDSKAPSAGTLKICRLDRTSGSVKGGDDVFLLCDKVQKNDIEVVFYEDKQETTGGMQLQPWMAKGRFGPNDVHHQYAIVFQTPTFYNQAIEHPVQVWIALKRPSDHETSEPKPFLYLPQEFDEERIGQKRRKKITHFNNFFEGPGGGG
Sequence,binding signal (GST-Ap-NF-kB RHD),binding signal [1],binding signal (GST-Co-NF-kB),binding signal (GST-Dm-Relish),binding signal (GST-Aq-NF-kB)
CCGATTAACATCAACCTCTTGTGTGATGTTAATCGGGTCTTGATTCGCTTGACGCTGCTG,-0.226 z-score,-0.141 z-score,0.355 z-score,0.187 z-score,-0.271 z-score
CCGATTAACATCACTGTTCACTCTGATGTTAATCGGGTCTTGATTCGCTTGACGCTGCTG,-0.138 z-score,-0.326 z-score,-0.324 z-score,-0.185 z-score,-0.477 z-score
CCGATTAACATCAGGAAAATTCATGATGTTAATCGGGTCTTGATTCGCTTGACGCTGCTG,-0.137 z-score,-0.093 z-score,-0.409 z-score,0.0806 z-score,0.548 z-score
CCGATTAACATCACATTGATGATTGATGTTAATCGGGTCTTGATTCGCTTGACGCTGCTG,-0.311 z-score,-0.852 z-score,-0.17 z-score,0.14 z-score,-0.194 z-score
CCGATTAACATCAAACATTGCCATGATGTTAATCGGGTCTTGATTCGCTTGACGCTGCTG,-0.137 z-score,-0.0869 z-score,-0.0557 z-score,-0.527 z-score,-0.454 z-score
CCGATTAACATCACGTTCGTTTCTGATGTTAATCGGGTCTTGATTCGCTTGACGCTGCTG,-0.441 z-score,-0.221 z-score,-0.236 z-score,-0.264 z-score,-0.36 z-score
CCGATTAACATCACCCGTTAGCTTGATGTTAATCGGGTCTTGATTCGCTTGACGCTGCTG,0.318 z-score,-0.0506 z-score,0.701 z-score,0.697 z-score,0.45 z-score
CCGATTAACATCAATCATGAGGCTGATGTTAATCGGGTCTTGATTCGCTTGACGCTGCTG,-0.111 z-score,0.098 z-score,-0.205 z-score,-0.573 z-score,-0.579 z-score
CCGATTAACATCACAAGGTCACATGATGTTAATCGGGTCTTGATTCGCTTGACGCTGCTG,0.0276 z-score,0.0871 z-score,0.0673 z-score,0.625 z-score,-0.268 z-score
CCGATTAACATCACGTTTTAGTGTGATGTTAATCGGGTCTTGATTCGCTTGACGCTGCTG,-0.674 z-score,-0.0849 z-score,-0.0745 z-score,0.931 z-score,-0.185 z-score
CCGATTAACATCAAGGAAGCGCTTGATGTTAATCGGGTCTTGATTCGCTTGACGCTGCTG,-0.733 z-score,-0.208 z-score,-1.11 z-score,-0.89 z-score,-0.742 z-score
CCGATTAACATCACCTGAACTATTGATGTTAATCGGGTCTTGATTCGCTTGACGCTGCTG,0.435 z-score,0.485 z-score,0.612 z-score,0.149 z-score,0.394 z-score
CCGATTAACATCAGCTGGGCAGTTGATGTTAATCGGGTCTTGATTCGCTTGACGCTGCTG,-0.305 z-score,-0.721 z-score,-0.716 z-score,-0.745 z-score,-0.362 z-score
CCGATTAACATCAGCTTTCTGACTGATGTTAATCGGGTCTTGATTCGCTTGACGCTGCTG,-0.778 z-score,0.45 z-score,-1.61 z-score,-1.07 z-score,-0.518 z-score
CCGATTAACATCAACTCCGAGGTTGATGTTAATCGGGTCTTGATTCGCTTGACGCTGCTG,-0.504 z-score,-0.117 z-score,-0.657 z-score,-0.184 z-score,-0.35 z-score
CCGATTAACATCAGCCTGTGGACTGATGTTAATCGGGTCTTGATTCGCTTGACGCTGCTG,-0.149 z-score,-0.886 z-score,-0.938 z-score,-0.901 z-score,-0.56 z-score
CCGATTAACATCAAAGTCTCCAATGATGTTAATCGGGTCTTGATTCGCTTGACGCTGCTG,-0.536 z-score,-0.0215 z-score,0.00406 z-score,-0.682 z-score,-0.353 z-score
CCGATTAACATCATTATTTCTTATGATGTTAATCGGGTCTTGATTCGCTTGACGCTGCTG,-0.957 z-score,0.0844 z-score,-0.287 z-score,-0.199 z-score,-0.228 z-score
CCGATTAACATCAAAAGACGGACTGATGTTAATCGGGTCTTGATTCGCTTGACGCTGCTG,0.432 z-score,-0.536 z-score,-0.0369 z-score,-0.471 z-score,-0.135 z-score
CCGATTAACATCATGCTCGCCCATGATGTTAATCGGGTCTTGATTCGCTTGACGCTGCTG,-0.301 z-score,-0.0299 z-score,0.0408 z-score,-0.857 z-score,-0.431 z-score
CCGATTAACATCAGTTCTCCGGGTGATGTTAATCGGGTCTTGATTCGCTTGACGCTGCTG,0.843 z-score,0.0598 z-score,0.832 z-score,0.314 z-score,0.584 z-score
CCGATTAACATCAAGGCCTAGGGTGATGTTAATCGGGTCTTGATTCGCTTGACGCTGCTG,0.284 z-score,-0.218 z-score,-0.167 z-score,0.257 z-score,0.274 z-score
CCGATTAACATCACCAATTGGTATGATGTTAATCGGGTCTTGATTCGCTTGACGCTGCTG,-0.267 z-score,-0.463 z-score,-0.75 z-score,-0.419 z-score,-0.305 z-score
CCGATTAACATCAAAGGTTGCGTTGATGTTAATCGGGTCTTGATTCGCTTGACGCTGCTG,0.0555 z-score,-0.341 z-score,-0.602 z-score,-0.664 z-score,-0.614 z-score
CCGATTAACATCATTTGCTCGATTGATGTTAATCGGGTCTTGATTCGCTTGACGCTGCTG,-0.411 z-score,-0.903 z-score,0.209 z-score,-0.565 z-score,-0.592 z-score
CCGATTAACATCATTGGAACGCATGATGTTAATCGGGTCTTGATTCGCTTGACGCTGCTG,-0.364 z-score,-0.38 z-score,-0.33 z-score,-0.552 z-score,-0.495 z-score
CCGATTAACATCACCAACCCGAGTGATGTTAATCGGGTCTTGATTCGCTTGACGCTGCTG,0.166 z-score,0.603 z-score,0.5 z-score,0.794 z-score,-0.0652 z-score
